SMILES strings stand for the structures. About 2,200 (0.71%) of roughly 310,000 compounds showed an effect of 50% or more. The effect is printed as a negative number. The list shows a part of the results.

The target of this assay is human ether-à-go-go-related gene (hERG) potassium channel (human, UniProt Q12809). The assay is described as follows: primary screen, population patch clamp on CHO cells stably expressing hERG.
Sequence of human ether-à-go-go-related gene (hERG) potassium channel (Q12809 whole entry, looked up): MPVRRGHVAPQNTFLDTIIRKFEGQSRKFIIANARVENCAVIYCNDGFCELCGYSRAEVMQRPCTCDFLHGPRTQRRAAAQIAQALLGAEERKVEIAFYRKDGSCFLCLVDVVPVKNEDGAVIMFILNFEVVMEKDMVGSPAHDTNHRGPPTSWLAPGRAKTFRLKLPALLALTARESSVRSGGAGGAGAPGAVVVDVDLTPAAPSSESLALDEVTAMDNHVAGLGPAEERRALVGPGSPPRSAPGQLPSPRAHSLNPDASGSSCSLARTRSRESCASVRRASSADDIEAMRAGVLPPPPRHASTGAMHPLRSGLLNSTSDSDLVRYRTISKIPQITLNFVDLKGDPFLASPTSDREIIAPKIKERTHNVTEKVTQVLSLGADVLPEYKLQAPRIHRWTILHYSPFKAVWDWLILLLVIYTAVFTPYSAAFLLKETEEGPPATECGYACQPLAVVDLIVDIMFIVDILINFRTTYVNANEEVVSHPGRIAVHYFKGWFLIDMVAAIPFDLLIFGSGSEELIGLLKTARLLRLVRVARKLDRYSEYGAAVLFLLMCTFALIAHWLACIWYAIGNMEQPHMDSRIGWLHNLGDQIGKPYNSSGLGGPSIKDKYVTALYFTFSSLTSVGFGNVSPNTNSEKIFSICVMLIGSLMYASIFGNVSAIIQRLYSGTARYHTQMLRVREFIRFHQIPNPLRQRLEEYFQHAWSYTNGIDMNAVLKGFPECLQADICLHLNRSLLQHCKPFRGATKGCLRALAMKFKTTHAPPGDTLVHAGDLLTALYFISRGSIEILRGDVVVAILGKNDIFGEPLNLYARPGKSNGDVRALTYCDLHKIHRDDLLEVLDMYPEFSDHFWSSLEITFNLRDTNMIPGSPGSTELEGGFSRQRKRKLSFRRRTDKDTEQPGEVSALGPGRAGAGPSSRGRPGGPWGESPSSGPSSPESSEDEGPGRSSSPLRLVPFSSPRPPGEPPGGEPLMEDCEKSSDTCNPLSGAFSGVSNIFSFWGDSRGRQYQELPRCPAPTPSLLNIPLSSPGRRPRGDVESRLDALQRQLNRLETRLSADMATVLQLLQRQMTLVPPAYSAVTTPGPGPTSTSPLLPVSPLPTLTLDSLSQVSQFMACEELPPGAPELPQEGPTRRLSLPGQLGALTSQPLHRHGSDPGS
Take `CNc1cnn(-c2ccc(C)cc2)c(=O)c1Sc1ccc(C)cc1`: the “hERG current change (%, negative = inhibition) at 1uM” value stood at 6.52%. For the compound `COC(=O)c1cc(C#N)c(SCc2ccccc2)nc1C`, the “hERG current change (%, negative = inhibition) at 1uM” value worked out at 5.93%.

For the compound `CCOc1ccc(C(=O)Nc2nc(C)cc(C)n2)cc1[N+](=O)[O-]`, the “hERG current change (%, negative = inhibition) at 1uM” value is -28%. In the case of `O=C(CN(c1ccc(Br)cc1)S(=O)(=O)c1ccc(Cl)c([N+](=O)[O-])c1)NCCc1ccccc1` it was 18.8%; in that of `CCn1nnnc1NCc1c(OC)ccc2ccccc12`, 10.1%. For the compound `COc1ccc(/C=N/Nc2cc(C)nc(N3CCOCC3)n2)cc1OC`, the “hERG current change (%, negative = inhibition) at 1uM” value was found to be 10.6%.

For the compound `Cc1ccc(C(=O)N/N=C\c2cc3c(cc2Br)OCO3)s1`, the “hERG current change (%, negative = inhibition) at 1uM” value stood at 14%. The figure for `Cc1ccc(S(=O)(=O)/N=C(\N)Nc2nc(C)c3cc(C)c(C)cc3n2)cc1` is -7.23%. In the case of `CCNc1nc(NCC)nc(SCC(C)=O)n1` it was 17.1%. In the case of `COc1ccc(Br)cc1/C=N/NC(=O)c1cccnc1` it was 11.3%; in that of `Cc1ccc(S(=O)(=O)N(C)CCCC(=O)Nc2ccc(C)cc2C)cc1`, 10.4%. For `CCNc1nnc(SCC(=O)c2c(N)n(C3CC3)c(=O)[nH]c2=O)s1`, the “hERG current change (%, negative = inhibition) at 1uM” value is on record as 6.93%.

In the case of `CCOc1cc(-c2sc(Nc3ccccc3)n[n+]2-c2ccc(F)cc2)ccc1OC.[Cl-]`, the “hERG current change (%, negative = inhibition) at 1uM” value is 16.7%. The figure for `CC(C)(C)NC(=O)[C@@H]1CN(Cc2cccnc2)CCN1C[C@@H](O)C[C@@H](Cc1ccccc1)C(=O)N[C@H]1c2ccccc2C[C@H]1O.O=S(=O)(O)O` is 2.2%; for `O=C(c1ccc(Cn2c(=O)[nH]c3ccccc3c2=O)cc1)N1CCN(c2ccccn2)CC1` it is 0.17%; for `Cl.Cn1nnnc1SCCNCc1ccncc1` it is 0.323%. In the case of `CC(=O)Nc1ccc(N(C(=O)Cc2c[nH]c3ccccc23)C(C(=O)NC2CCCCC2)c2ccco2)cc1` (stereo not drawn) it was 14.7%.

`Cc1cc(S(=O)(=O)N(Cc2ccccc2)Cc2ccc(N(C)C)cc2)ccc1-n1cnnn1`: the “hERG current change (%, negative = inhibition) at 1uM” value was 12.1%.

For the compound `Cc1c(NC(=O)CSc2nnc(C(C)Oc3ccc(Cl)cc3)n2-c2ccccc2)c(=O)n(-c2ccccc2)n1C` (stereo not drawn), the “hERG current change (%, negative = inhibition) at 1uM” value came out at 7.41%. On to `CC(C)(C)N(C(=O)Cn1nnc(-c2ccc(F)cc2)n1)C(C(=O)NC1CCCC1)c1ccncc1.Cl` (stereo not drawn), for which the “hERG current change (%, negative = inhibition) at 1uM” value came out at 13.7%. In the case of `COc1ccc(CNC(=O)C2CCN(C(=O)[C@@H]3Cc4ccccc4CN3)CC2)cc1` it was -13.7%; in that of `COc1cc(C2C3C(=O)N(c4ccc(F)cc4)C(=O)C3ON2c2ccccc2)ccc1O` (stereo not drawn), 6.49%. The figure for `COC(=O)[C@@H](Cc1ccccc1)NC(=O)NCCc1ccc(OC)c(OC)c1` is 14%. The figure for `CCOc1ccccc1-c1cc(-c2n[nH]c(=S)n2CC)c2ccccc2n1` is 7.67%; for `COc1ccc(S(=O)(=O)N2CCN(CC(O)COc3ccc(C#N)cc3)CC2)cc1OC` (stereo not drawn) it is -3.64%; for `Cl.OC(CN1CCCCC1)CN(c1ccccc1)c1ccccc1` (stereo not drawn) it is -14.3%.

On to `CCC12CC3CC(C1)CC(C(=O)Nc1nn[nH]n1)(C3)C2`, for which the “hERG current change (%, negative = inhibition) at 1uM” value is on record as -11.9%.

Regarding `CCOc1ccc(NC(=O)CN(C)C(=O)Cc2n[nH]c(=O)c3ccccc23)cc1OCC`, the “hERG current change (%, negative = inhibition) at 1uM” value is reported as 4.88%. In the case of `CCC(=O)Nc1ccc(S(=O)(=O)c2ccc(NC(=O)CC)cc2)cc1` it was 16.8%; in that of `COc1ccc(NC(=O)[C@@H]2CCCN2S(=O)(=O)c2cccc3cccnc23)cc1`, 6.08%; in that of `C/C(=N/NC(=O)C1CCCC1)c1ccc(NC(=O)C(F)(F)F)cc1`, 13.8%. Take `CC(=O)SC1CC(=O)N(c2ccc(C(C)(C)C)cc2)C1=O` (stereo not drawn): the “hERG current change (%, negative = inhibition) at 1uM” value was 12.7%. In the case of `O=C(NCCc1c[nH]c2ccccc12)c1ccccc1` it was 9.74%; in that of `O=C(NCc1cccnc1)C(=O)c1c[nH]c2ccccc12`, 13.9%; in that of `Nc1nc2nc(-c3ccccc3)cc(=O)n2[nH]1`, 11%. The figure for `CCOC(=O)c1oc2c(CN3CCN(CCO)CC3)c(O)c(CC)cc2c(=O)c1-c1nc2ccccc2s1` is 15.7%. Turning to `O=c1c2cc3c(cc2[nH]c(=S)n1C1CCN(Cc2ccccc2)CC1)OCO3`, the “hERG current change (%, negative = inhibition) at 1uM” value is given as -2.26%. In the case of `O=C(CCCn1ncn2c(cc3occc32)c1=O)NCc1cccc(Cl)c1` it was -18.8%; in that of `COc1ccc(NC(=O)C(F)(OC)C(F)(F)F)c(OC)c1` (stereo not drawn), -1.8%.

As to `Cc1cc(/C=C2\SC(=O)N(C)C2=O)c(C)n1-c1ccc(O)cc1`, the “hERG current change (%, negative = inhibition) at 1uM” value is reported as 7.84%. The figure for `CSc1ncc(Cl)c(C(=O)NCc2cccnc2)n1` is 15.3%; for `CC1=C(C(=O)OCc2ccccc2)C(c2cccs2)N2C(=O)CCSC2=N1` (stereo not drawn) it is 18.7%; for `CC(Sc1nc2ccccc2[nH]1)C(=O)NC1CCCCC1C` (stereo not drawn) it is 8.22%. In the case of `Cc1ccc2cccc(OCc3nnc(SCC(=O)O)n3C)c2n1` it was 19%; in that of `S=c1[nH]nc(CCc2nc3ccccc3[nH]2)n1-c1ccccc1`, 13.3%; in that of `CCOc1ccc(N(CC(=O)NCCc2ccccc2)S(=O)(=O)c2ccccc2)cc1`, 14.1%. The figure for `CCn1c(SCC(=O)Nc2cccnc2Cl)nnc1-c1ccccc1` is 4.14%; for `O=C(C[n+]1cccc(Br)c1)c1ccc(-c2ccccc2)cc1.[Br-]` it is -1.74%. Consider `C/C(Cn1nnc([N+](=O)[O-])n1)=N\NC(=O)c1ccc(Cl)c(Cl)c1`, for which the “hERG current change (%, negative = inhibition) at 1uM” value was -3.52%. In the case of `Cc1cccc(-n2ccnc2SCC(=O)Nc2ccc3c(c2)OCCO3)c1` it was -5.76%; in that of `CC1CCCN(c2sc(S(C)(=O)=O)nc2S(=O)(=O)c2ccc(Cl)cc2)C1` (stereo not drawn), 17.7%. In the case of `Cc1cc2ccccc2c(=O)n1CC(=O)N(C)c1ccc(F)cc1` it was 9.42%; in that of `O=C(Nc1ccccc1)Nc1nc(-c2ccc(F)cc2)cs1`, 18.8%; in that of `CC(C)(C)OC(=O)N1CCC(CC2CC(c3cccc(Br)c3)=NO2)(C(=O)NCC2CCCCC2)CC1` (stereo not drawn), 14.6%. In the case of `COc1ccc(OC)c(NC(=O)CSc2n[nH]c(-c3cccnc3)n2)c1` it was -11.3%; in that of `O=C(Nc1cccnc1Cl)c1cc(-c2ccc(Br)cc2)on1`, 22.3%; in that of `Cc1cc(Br)ccc1NC(=O)CN(C)C(=O)C1CSC2(C)CCC(=O)N12` (stereo not drawn), 14.7%. `CN(C(=O)CC(NC(=O)c1ccccc1)(c1ccccc1)c1ccccc1)c1ccccc1`: the “hERG current change (%, negative = inhibition) at 1uM” value turned out to be 10.2%. In the case of `Cc1ccc(Cl)cc1N1CCN(C(=O)c2cc3c(=O)[nH]c4ccccc4c3n2C)CC1` it was 10.4%; in that of `Cc1nc2ccccn2c1-c1ccnn1S(=O)(=O)c1ccc(F)cc1`, 6.97%.

For `Cc1ccc(S(=O)(=O)Nc2nonc2C)cc1`, the “hERG current change (%, negative = inhibition) at 1uM” value was determined as 3.47%. The figure for `CCCCCn1c(=NC(=O)c2cccnc2)c(C#N)cc2c(=O)n3cccc(C)c3nc21` is -5.66%. In the case of `CCCSC1=C(C#N)C(c2ccccc2OCC)CC(=O)N1` (stereo not drawn) it was 2.13%; in that of `O=C(CCNS(=O)(=O)c1ccc2[nH]c(=O)oc2c1)NCc1ccccc1`, 3.2%. With `Cc1ccnc(SCC(=O)N2CCC(C(N)=O)CC2)n1`, the “hERG current change (%, negative = inhibition) at 1uM” value is -6.25%. The figure for `CCc1nn2c(NCCCO)cc(C)nc2c1-c1ccc(F)cc1` is 12%; for `CC(Oc1ccc(F)cc1)c1ccnc2nc(/N=C/N(C)C)nn12` (stereo not drawn) it is 9.12%; for `Cc1ccc(S(=O)(=O)N2CCC(C(=O)N[C@@H](C)C(=O)NCc3ccccc3)CC2)cc1` it is 6.93%. In the case of `COc1ccc(NC(=O)C(NC(=O)Cc2cccs2)c2ccc(C)cc2)cc1` (stereo not drawn) it was 3.62%; in that of `CN(C(=O)OCc1ccccc1)C(CC(N)=O)C(=O)O` (stereo not drawn), 8.56%; in that of `CCCCn1cnc2c(cnn2-c2ccc(F)cc2)c1=O`, 10.4%. The figure for `COc1ccc(-c2sc3ccc(N4CCOCC4)cc3c2-c2ccc(O)cc2)cc1` is 13.7%. On to `COc1cc(C(C(=O)NC2CCCC2)N(C(=O)c2snc(C(N)=O)c2N)c2ccccc2)cc(OC)c1OC` (stereo not drawn), for which the “hERG current change (%, negative = inhibition) at 1uM” value was -0.496%. In the case of `CC(C)c1cccc(C(C)C)c1NC(=O)CN1CCCC1` it was 15.5%; in that of `COc1ccc(-c2oc3ccccc3c2C(=O)OCc2ccccc2OC)cc1`, 4.5%.

In the case of `COc1ccc(N2C(=O)CCC(C(=O)NCc3cccnc3)C2c2ccc(OC)c(OC)c2)cc1` (stereo not drawn), the “hERG current change (%, negative = inhibition) at 1uM” value is given as 7.03%. Take `CCC(CC)COC(=O)C(C#N)c1nc2ccccc2nc1N1CCOCC1` (stereo not drawn): the “hERG current change (%, negative = inhibition) at 1uM” value came out at 4.5%. In the case of `CN(CCn1ccnc1)Cc1cn(-c2ccccc2)nc1-c1ccc2c(c1)OCO2` it was -5.1%; in that of `COCCCn1c(=O)/c(=C\c2ccc(OC(F)F)c(OC)c2)s/c1=C(/C#N)C(N)=O`, 9.72%; in that of `COc1ccccc1N1C(=O)C2CC=CC(C)C2C1=O` (stereo not drawn), 16.5%. In the case of `CCOC(=O)NC(NCCc1ccccc1)(C(F)(F)F)C(F)(F)F` it was 18.9%. The figure for `O=C(O)Cn1cnc2sc3c(c2c1=O)CCCC3` is 11%. `O=C(NC1CCCCC1)c1cccc(S(=O)(=O)N2CCCCC2)c1`: the “hERG current change (%, negative = inhibition) at 1uM” value is listed as 8.62%. The figure for `Cc1cc(Cl)c2c(c1)[C@]1(C(=O)N2)[C@@H]2C(=O)N(Cc3ccccc3)C(=O)[C@@H]2[C@@H]2CCCN21` is 9.42%.
